The source gives no read counts; variants with many changes may rest on few reads.
B1: CPEB3 Ribozyme (parent)
chain: UAACAGGGGGCCACAGCAGAAGCGUUCACGUCGCAGCCCCUGUCAGAUUCUGGUGAAUCUGCGAAUUCUGCUGUAUAUCUC

Variants of: B1
Test: self-cleavage, relative activity (ratio to wild type); higher = more cleavage; in vitro, sequencing
Method in brief: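 After error-prone PCR and barcoding, CPEB3 ribozyme mutant libraries were transcribed with T7 RNA polymerase at 37°C for 5 hours, then given 15 min with DNase I before an EDTA stop, and they cleaved during both steps. Reverse transcription with template switching preceded Illumina sequencing. Relative activity divides a variant's cleaved/total read fraction by the unmutated ribozyme's. At least 5 reads were required per variant, and three batches were averaged.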

| Variant | self-cleavage |
| --- | --- |
| UAACAGGAGGUCCCAGCAGAAGCGUUCACGUCGCAGCCCCUGUCAGAUUCUGGUGAAUCUGCGAAUUCUGCUGUAUAUCUC [G8A C11U A13C] | 0.09 |
| UAACAGGAGGCCACAGCAGAAGCGUUCAAGUCGCAGCCCCUGUCAGAUACUGGUGAAUCUGCGAAUCCUGCUGUAUACCCC [G8A C29A U49A U67C U78C U80C] | 0.06 |
| UAACAGGAGGCCACAGCAGAAGCGUUCACGUCGCAGCCCCUGUCAGAUUCUGGUGAGUCAGCGAAUUCUGCUGUAUAUCUC [G8A A57G U60A] | 0.04 |
| UAACAGGAGGCCACAGCAGAAGCGUUCACGUCGCAGCCCCUGUCAGAUUCUGGUGAAUCUGCGAGUCCUGCUGUAUAUCUC [G8A A65G U67C] | 0.05 |
| UAACAGGAGGCCACAGCAGAAGCGUUCACGUCGCAGCCCCUGUCAGAUUACGGUGAAUCUGCGAAUUCUGCUGUAUAUCUC [G8A C50A U51C] | 0.08 |
| UAACAGGAGGCCAUAGCAGAAGCGUUCACGUCGCAGCCCCUGUCAGAUUCUGGUGAAUCUACGAAUUCUGCUGUAUACCUC [G8A C14U G61A U78C] | 0.05 |
| UAACAGGAGACCACAGCAGAAGCGUUCACGUCGCAGCCCCUGUCAGGUUCGGGUGGAUCUGCGAAUUCUGCAGUAUAUCUC [G8A G10A A47G U51G A56G U72A] | 0.03 |
| UAACAGGAGGCCACAGCAGAAGCGUUCACGUCGCAGCCCCUGUCGGAUUCUGGUGAAUCUGCGAAUUCUGCCGUAUAUCUC [G8A A45G U72C] | 0.45 |
| UAACAGGAGGCCACAGCAGAAGCGUUCACGUCGUAACCCCUGUCGGAUUCUGGUGAAUCUGCGAAUUCUGCUGUUUACCUC [G8A C34U G36A A45G A75U U78C] | 0.04 |
| UAACAGGAGGCCACAGCAGAAGGGUUCACGUCGCUGCCCCUGUCAGAUUCUGGCGAAUCUGCGAAUUCUGCGGUAUAUCUC [G8A C23G A35U U54C U72G] | 0.04 |
| UAACAGGAGACCACAGCAGAAGCGUUCACGUCGCAGCCCCUGUCGGAUUCUGGUGAAUCUGCGAAUUCUGCUGUAUAUCUC [G8A G10A A45G] | 0.06 |
| UAACAGGAGGCCACAGCAGAAGUGUUCACGUCGCAGCCCCUGUCAGACUCUGGUGGAUCUGAGAACUCUGCUGUAUUUCUC [G8A C23U U48C A56G C62A U66C A77U] | 0.04 |
| UAACAGGAAGCCACAGCAGAAGCGUUCACGUCGCAGCCCCUGUCAGGUUCUGGUGAACCUGCGAAUUCAGCUGUAUAUCUC [G8A G9A A47G U58C U69A] | 0.19 |
| UAACAGGAAGCCACAGCAGAAGCGUUCACGUCGCAGCCCCUGUCAGAUUCUGGUGGAUCUGCGAAUUCUGCUGUAUAUCUC [G8A G9A A56G] | 0.34 |
| UAACAGGAGGCCACAGCAGAAGCGUUCACGUCGCAGCCCCUGUCAGGUUCUGGUGAAUCUGCGAAUUCUGCUGUAAAUCUC [G8A A47G U76A] | 0.41 |
| UAACAGGAGGCCACAGCAGAAGCGUUCACGUCGCAGCCCCUGUCAGAUUCUGGUGGAUCUGCGAAUCCUGCUGUAUAUCUC [G8A A56G U67C] | 0.22 |
| UAACAGGAGGCCACAGCAGAAGCGUUCACGUCGCAGCCCCUGUCUGGUUCUGGUGAAUCUGCGAAUUCCGCUGUAUAUCUC [G8A A45U A47G U69C] | 0 |

| Variant | self-cleavage |
| --- | --- |
| UAACAGGAGGCCACAGCAGAAGCGUUCACGUCGGAGCCCCUGUCUGAUUCCGGUGAAUCUGCGAACUCUGCUGUAUAUCCC [G8A C34G A45U U51C U66C U80C] | 0.06 |
| UAACAGGAGGCCACAACAGAAGCGUUCACGUCGCAGCCCCUGUCAGACUCUGGUGGAUCUGCGAAUUCUGCUGUAUAUCUC [G8A G16A U48C A56G] | 0.27 |
| UAACAGGAGGCCACAGCAGAAGCGUUCACGUCGCAGCCCCUGUCAGGUUCUGGUGGAUCUGCGAAUUCUGCUGUAUAUCUC [G8A A47G A56G] | 0.25 |
| UAACAGGAGGCCACAGCAGAAGCGUUCACGUCGCAGCACCUGUCAGAUUCUGGUGAAACUGCGAAUUCUGCUGUAUAUCUC [G8A C38A U58A] | 0.11 |
| UAACAGGACGCCACAGCAGAAUCGUUCACGUCGCAGCCCCUGUCACAUUCUGGUGAAUCUGCGAAUUCUACUGUAUAUCUC [G8A G9C G22U G46C G70A] | 0.05 |
| UAACAGGAGGCCACAGUAGAAGCGUACACGUCGCAGCCCCUGUCAGAUUCUGGUGGAUCUGCGAAUUCUGCUGUAUAUCAC [G8A C17U U26A A56G U80A] | 0.04 |
| UAACAGGAGGCCACAGCAGAAGCGUUAACGUCGCAGCCCCUGUCAGAUUCUGGUGAACCUGCGAAUUCUGCUGUAUAUCUC [G8A C27A U58C] | 0.07 |
| UAACAGGAGGCCACAGAAGAAGCGCUCACGUCGCAGCCCCAGUCAGAUUCUGGUGAGUCUGCGAAUUCUGCAGUAUAUCUC [G8A C17A U25C U41A A57G U72A] | 0.11 |
| UAACAGGAGGCCACAGCAGAAGAGUUCACGUCGCAGCCCCUGUCAGAUUCUGGUGAAACCGCGAAUUCUGCUGUAUAUCUC [G8A C23A U58A U60C] | 0.06 |
| UAACAGGAGGCCACAACAGGAGCGUUCACGUCGCAGCCCCUGUCAGAUUCUGGUGAGUCCGCGAGUUCUGCUGUAUACCUC [G8A G16A A20G A57G U60C A65G U78C] | 0.07 |
| UAACAGGAGGCCAUAGCAGAAGCGAACACAUCGCAGCCCCUGUCAGAUUCUGGGGAAUCUGCGAAUUCUGCUGUAUAUCUC [G8A C14U U25A U26A G30A U54G] | 0.05 |
| UAACAGGAGGUCGCAGCAGAAGCGUUCACGUCGCAGCCCCCGUCAGAUACUGGUGAAUCUGCGUAUUCUGCUGUAUAUCUC [G8A C11U A13G U41C U49A A64U] | 0.1 |
| UAACAGGAGGCCACAGCAGAAGUGUUCACGUCGCAGCCCCUGUCAGAUUCUGGUGAAUCUGCGAAUUCUGCUGAAUAUCUC [G8A C23U U74A] | 0.39 |
| UAACAGGAGGCCAGAGCAGAAGCGCUCACGUCGCAGCCCCUGUCAGAUUCUGGUGAAUCUGCGAAUUCUGCUGUAUACCUC [G8A C14G U25C U78C] | 0.06 |
| UAACAGGAGGCCACAGAAGAAGCGUUCACGUCGCAGCCGCUGUCAGAUUCUGGUGAAUCUGCGAAUUCUGCUGUAUAUAUC [G8A C17A C39G C79A] | 0.43 |
| UAACAGGAGGCCACAGCAGAAGUGUUCACGUCGCAGCCCCUGUCGGGUUCUGGUGAAUCCGCGAAUUCUCCUGUAUAUCCC [G8A C23U A45G A47G U60C G70C U80C] | 0.04 |
| UAACAGGAGACCACAGCAGAAGCGUUCACGUCGCAGCCCCAGUCAGAUUCUGGUGAAUCUGCGAAUUCUGCUGUUUAUCUC [G8A G10A U41A A75U] | 0.06 |
